# Experimental data published in the supplement of paper PMC10126150.
# Values marked as one replicate rest on one cluster of the flow cell; about a third of the high ones do not repeat.
# Test system: ATP
# Experiment: switch fluorescence ratio, 500 uM ATP over buffer (Cy3 cluster intensity, sum of 5 cycles each) (fold (ratio)); higher = stronger signal-on switching upon ATP binding; sequences stand for … in TCGTCGGCAGCGTCAGATGTGTATAAGAGACAGTTTTTTTTTTTTTTTTTTTTTTTTT…TC
# Conditions: aptamer strand: ATP DNA aptamer (quencher-CACCTGGGGGAGTATTGCGGAGGAAGG + anchor), 100 nM annealed; ATP concentration: 500 uM; one replicate
# Method in brief: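 The quencher-labelled ATP aptamer, at 100 nM, was annealed to Cy3-labelled switching-strand clusters on a modified Illumina MiSeq flow-cell. The clusters were imaged in selection buffer, then after 15 min with 500 uM ATP at 22 °C, and this buffer/ATP cycle ran five times with NaOH stripping and re-annealing between runs. Per-cluster fluorescence ratios, summed target-cycle over summed buffer-cycle Cy3 intensity, were averaged per switch-domain sequence. Clusters outside 100-1000 RFU were excluded.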
# 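Further: ATP exposure 15 min at 22 °C before imaging.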
row,Sequence,switch fluorescence ratio
1,TATCTATGCT,0.983
2,ACGGTGTACA,1.01
3,GCGTACATTT,1.02
4,AACAAGGATC,0.971
5,CCTCATTAGG,1.01
6,AAAAAACAG,1.02
7,ATTGTGTTTG,1.03
8,AATCGCATAT,1.4
9,TGAAGGATAT,1
10,TCGGTCAGGC,1.01
11,GCGGATTCGA,0.986
12,CCTAAGATGG,1.08
13,AGTACTTGCA,1.04
14,TCGAGAATGA,0.995
15,CGTGCTGCGC,1.03
16,ATTTTGATCG,1.01
17,CAAGGGACCT,0.992
18,GAGATTTGCG,0.972
19,TCAGGCGGGA,1.01
20,TAATAGCTGC,1.02
21,ATTTAT,0.993
22,CGATACTGAG,1.02
23,ATCATACAAA,1.03

row,Sequence,switch fluorescence ratio
1,TGGTAGTGGC,0.981
2,TTTACTGACC,1.15
3,TCTCAGCTTC,1.3
4,ACGTCTCGAA,1
5,CATTGTGGTG,1
6,CTTACGTCCA,1.07
7,ATTCTCATGC,0.992
8,TCCATTTAA,1.05
9,TCTGTGATTA,0.97
10,TGTTGAGGCC,0.914
11,ATCGTGTTCG,1.08
12,TGCGGCCAAC,1.01
13,GCATGAAGGC,1.06
14,GGTGCTTCGA,1.01
15,AGTTACTAGC,1.02
16,GAGGATATAA,1.05
17,GTGTAGTACG,0.976
18,GGCATTTCGG,0.95
19,TGCTCAAGGG,1.01
20,TAAGGACAGA,0.975
21,TGTCGAAGTG,0.983
22,CACTCGGATT,0.996
23,GCTGTCGCC,1.01

row,Sequence,switch fluorescence ratio
1,CAACTAGTCC,0.983
2,AACGCAAATA,2.78
3,TACCGGTGTT,1.04
4,CATAATACGC,1.08
5,TGTAGAAGGC,1.01
6,TGGCCGGTCG,0.975
7,ACAATTGGCC,0.952
8,TGGTAAGAAT,1.02
9,TACGGGGAAT,1
10,CCACTCATTT,1.03
11,GTGGTTGTC,1
12,AAAACGCAGC,1.14
13,GAACTTACTG,1.12
14,ATCGCCCAAC,1.05
15,TTCCATGGGG,0.998
16,TCCAGGGTGT,2.54
17,ATGAAACTAA,1.1
18,GACCTTAGT,1
19,ATAGACGGAC,1.28
20,CATCGAACAC,1.17
21,ACGCGTATTT,1.01
22,TAAACCCCAG,1.23
23,CTATTGCACC,1.05

row,Sequence,switch fluorescence ratio
1,CGAAGAGCAA,1.72
2,TAAGCAAGGT,1.61
3,CGTGGCCACG,0.968
4,CTATTCGCGC,1.18
5,GACCTCCATG,1.01
6,ACTGGTTTGA,0.985
7,AGCGAGGTGT,1.04
8,CCGCTACGTG,1.83
9,TTTGCCATAA,0.975
10,CAATATTCCG,0.986
11,GGAATGATAC,1.11
12,CGGAGAGTGG,1.01
13,GAATTAGGCA,0.984
14,TAAGATCGGG,0.965
15,CCTGTTGTAC,1.99
16,CAATTAGCGT,0.977
17,ATATCGGTCT,0.957
18,CGAAATGTTA,0.977
19,CGTAGTACCT,1.12
20,TAACTTGGGG,0.967
21,CCTAGGCGTA,1.07
22,GAAAATCGCT,1
23,TATGAACATA,1.04

row,Sequence,switch fluorescence ratio
1,TTTCCGACGA,4.03
2,GGATCAAAGT,0.999
3,TTAATTTAAC,0.988
4,TTTTTTACAA,1.05
5,TTACTCGCCC,1.25
6,GGGTAAGAC,1.01
7,GATCGGCCGT,1.02
8,AGGGTAGAAC,1.02
9,ATGGAGCTG,1.03
10,TTCCGGGCA,1.91
11,TAGTAAGTGT,1
12,AGACTCTTGT,0.981
13,CTCTATGGTT,1.04
14,AGTGATAGTA,0.976
15,CTAGGAACAC,1.07
16,CAAAGCCTAG,0.988
17,ATGTTACTTA,1.08
18,CACCTCTGAA,1.07
19,GGGGTTCCTG,0.948
20,AAAGAAGTAT,1.01
21,GTTCCTGATA,0.998
22,TACGCAGACT,1.82
23,AAGTTTGAAA,1.01

row,Sequence,switch fluorescence ratio
1,CCGGCGCCTT,1.12
2,CCCCAATTGG,1
3,GAGAAAAGCG,1.02
4,TCATCTTGGG,1.01
5,CATATGGGAG,0.986
6,ATTGACTCTC,1.05
7,CATCTAAAGT,1.02
8,TTCCGGCTCG,0.956
9,ATGGAACTTA,0.983
10,GACACTGGCA,1.04
11,TAGCTAGATT,1.33
12,TCATGTGTGC,1.03
13,TTACACCGAC,1.53
14,GCGAGCCTCA,0.933
15,AGGTGTATAC,1.01
16,GACAGTACAG,1.03
17,AATCGTTTGG,0.951
18,TCAAGTAAAC,1.14
19,CCACTTAGGT,1.06
20,TAATGATTC,1.05
21,GGGGTAAGCA,0.986
22,AGCTTATGCC,0.982
23,ATCTTCGAGG,0.998

row,Sequence,switch fluorescence ratio
1,AATTCAGTTA,1
2,TCTTGACCTG,1.01
3,TAAGCTCACC,1.13
4,AGCAATTTAA,1.06
5,CGTTGCAATT,1.54
6,TGCCAACCAG,1.06
7,AATGTTTGT,0.993
8,TTGTTATTGT,0.979
9,GTTCAGGG,1.02
10,AACGGTCGT,0.985
11,CGAAGGAAT,1.11
12,AAAGCTATAA,1.2
13,AGCAGGGAGG,1.01
14,TTATTCTCCT,1.02
15,GTGGACATAA,0.986
16,CCAGTCGTAA,1.33
17,TTACGTTATC,3.39
18,ACTGATAAGG,1.03
19,TCAAATGTGG,1
